Publication PMC10726135
The list shows a part of the results. At the low end of the ranking the order means little. Measured with an extract: partners may take part in the binding.

The sequences below were run against T1, HNF4alpha2 (COS-7 nuclear extract) (UniProt P41235) (assay: protein-binding microarray). Settings: COS-7 nuclear extract on double-stranded Agilent 4x180k PBM; binding buffer, salt, pH and temperature not given; high values mean tight binding; double strand, one strand shown; sequences stand for … in …GCCTAGGGAGATTAGAGTATCGGTCGA.
T1 sequence: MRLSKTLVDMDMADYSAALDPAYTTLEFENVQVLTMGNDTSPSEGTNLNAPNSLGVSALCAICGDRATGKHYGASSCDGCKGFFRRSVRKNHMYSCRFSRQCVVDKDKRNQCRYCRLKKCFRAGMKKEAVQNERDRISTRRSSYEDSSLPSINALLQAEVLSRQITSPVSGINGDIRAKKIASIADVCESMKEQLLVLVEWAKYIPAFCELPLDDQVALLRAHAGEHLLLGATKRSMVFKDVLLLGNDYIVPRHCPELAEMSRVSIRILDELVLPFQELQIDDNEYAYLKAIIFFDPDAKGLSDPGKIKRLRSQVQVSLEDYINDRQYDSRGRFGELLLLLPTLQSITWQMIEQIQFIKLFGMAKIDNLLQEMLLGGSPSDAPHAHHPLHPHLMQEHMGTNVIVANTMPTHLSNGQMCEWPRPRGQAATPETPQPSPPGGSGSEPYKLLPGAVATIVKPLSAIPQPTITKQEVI

Row | Sequence | binding signal (log2 normalized intensity)
1 | AGATAACAAGGGCATGTAAAGGAGATTATC | -0.325
2 | TTGCATGGTTGACATACTTCTGAGTTTTAT | 1.68
3 | CAGTCTAAAGTAAATACCATTAGGGGGCAA | 1
4 | TTGTTTACCTTGGTGTTTCTTTGATGTGAA | 1.86
5 | AGTATTTAGCTTCCTCCCTTGGAATGTGAC | 1.86
6 | CCTTAAGAGTTAATAACAGACCATGCCATG | -1.12
7 | CAAAGCATAGCAAGAGTGACCTTTGCTCCA | 8.97
8 | TCAGACTGGTGTAGTGGGGAGGGCATGGAC | 0.832
9 | TGTCTGCTGAGAGATTCCTCTGCACAATAA | -1.14
10 | CTATGGAACATGGACTTTGAACCTCTCTTC | 8.15
11 | TCCAAAGTCCAGGTGCTTTCTTCTTGATCA | 2.54
12 | CGAAAGCCGGTTCCCGCCCAAGGAGACAGG | -1.23
13 | CAAATATTAGAACAAACGACGCTCCTATCA | -1.06
14 | ATTTCCAAAAGGTACCACTGTTTGCAGCTG | -1.12
15 | TTAACAAAATTCAACAAGACCCTGCCCTTT | 3.32
16 | TTCTGCTATCTGCCTGCAGGAGAGAGCAAA | -1.11
17 | AGGTCAACTGCCCTCTCAAATTACAAGGAG | -0.51
18 | CCTGGAATGACAAGAATTGGAACCCTGCTG | -0.575
19 | TTCGGGGCACTGCTCCCTGCCCCTACCCCC | 5.02
20 | GCAGCCTCCAAGATAAAGGGTCAGATTGTA | 1.22
21 | TTTTTGATTACCTTAGGGGGAAACAAAAGA | -1.02
22 | TCACCCTCTCCACCCCCATGCAAGTTCCCA | 5.26
23 | TCTTCACCGTAAAGCCACCCCTTTCTCCTC | 3.28
24 | AGGATTTTATTCAGGTGGCCACTGGCCCAG | 0.241
25 | ACAGGGAGTCTGTTGCAAGCAATGGAGAGG | -1.13

Row | Sequence | binding signal (log2 normalized intensity)
26 | TGCAACATACTGAAAAAGGGTTGTGCAAAC | 0.437
27 | CCTCAGTAAATGCTGGAGATGAGGCTCAGA | -1.04
28 | CCAGAGTAACTATGGGGCAAAGTGCAAGCA | 4.02
29 | GGGCCTTTCCAGCAAATCCCAATTCACTGA | -1.15
30 | GCACACAAAAAAAACCACTCTTATCAGGCC | -1.07
31 | TCAGCAGAGGACAGAAGAAGGAAAAGGCCT | -0.984
32 | GTGTGGCTTCCAAGGGGAATGTGGATGCTG | -0.766
33 | GAACTCTAAGCAGCGAAGCTGTGTCAGGCA | -0.795
34 | AGGCCTTCCTATCTCTACTTGCCGAAACAT | 0.743
35 | CCATGACCTTTGTACTAATGATTTGTAAAT | 5.25
36 | TAACAGCTTCTGTTCGCAGACCTGCCAAAG | -1.08
37 | ATCTAAGGGCCTAGAAGAGTTCCTGACAAT | -1.17
38 | GTGGGGGAGGAGACAGCTACGGAATGCTTC | -1.15
39 | ATTCAGAACTTTGACCACCTACTGTTTGTG | 2.05
40 | ACACACAATAAGGACTTTGGACCGTCTTGT | 7.27
41 | TGGCTCATTTTGGGCATCTGCAGGGCAGCA | -1.09
42 | AGCGGCCTTCCCCTTTTTCTGTAAAGCTTT | 1.21
43 | TTGCTCCCTGGGAACCCCTCCAGCATTCTC | 1.94
44 | ACTTTGGTGGCTTTTGCTGACATGCTCTTG | 1.2
45 | TCACTGACCTCTGCCCTACTGTATATCCTG | 2.39
46 | TCTCAAGTTCAGTCTTTATTGGTACGTTCC | 2.2
47 | CTCCCCCAGGCGACTGGGCCAGGAGCAGGA | 2.33
48 | TTGAGGTTCACTGGGGAGACTCTCTCTCCT | -1.06
49 | AAACTTTATCTCCCTTGCTTTATCCGACCA | 0.536
50 | CAGCTTTTATGTCAAACCACTTCCCCTTTC | 1.85

Row | Sequence | binding signal (log2 normalized intensity)
51 | GCTTGGCAAACATTTCACTTTGCTCCCTCC | 1.16
52 | ATTGCCGACCTCATGAGTAGAGAGCAATCA | -1.18
53 | CCTGTTTGCTTCTGCTGTTTGTTTCACTAA | 1.5
54 | TGTCAGCTAGAGGCCCTGCATTAAACAAGA | -1.16
55 | ACCTTTGCTCATGTCCTCTTGCTTCCTGGG | 1.37
56 | GCCTCACTAAGTCCTGCTTAGAGCATCCAA | -1.17
57 | CAGGGAGAAGGCAAAAATGCAGGCAATGAA | -1.18
58 | AAAGGGACAGGGGTCATCAGGGGTCCTGGC | 0.949
59 | CAACAAGGTGGAGACCTCTGCAGGAGGACT | -1.15
60 | CACTTGGATAGCGCGTGGCCCAAGGCCTCT | -1.3
61 | AGTATGCAGCGGGCAGCCCGTGTGGGCGGG | -0.679
62 | CTGTCACACTTGCCCTTTGCCCTCACTGGT | 7.1
63 | CCCTAATCTCACTCTTTGTTATTTATTGGC | 1.89
64 | AGTCTGTGACTTGATCTTTGACTGGATTCT | 2.16
65 | AGTATTGAGGCCGGAGGGCAGGCGGGCCGC | -0.782
66 | CCCTGAGGCCAATGAGGGAAGTTATTAACA | -0.951
67 | ATCCAGTCCTCACCCAGAACTTTGACCGTT | 4.59
68 | ATGCCCCTCCCAGGGACACATGCCCCTTCC | 5.44
69 | TAGTTACCCAAGGGATGGCATCACCTTTGG | -0.611
70 | GTACTTTTCTGTTTGTCTTACTGTGTTGTC | 2.24
71 | TTCCAGCCAAACCAGGTCATGCATTCTGCT | -1.17
72 | TGAACGACTTGACAAAGGTCATTCATGTGC | 3.72
73 | AAGTAGTCAGTGTCCAGCACACCTTTTTTT | -1.2
74 | TGTCATCCTTTTGCTTAAAACGCCTGCAGA | 0.637
75 | AGTAAAACTGGAAAATCAAAGACTCAGATG | -1.19

Row | Sequence | binding signal (log2 normalized intensity)
76 | ATTCCAGAGAAGCACATCCAGGCAGCTTCA | -1.12
77 | TCTTCAGAGAGTCTGGCTGACTAACAAGCT | -1
78 | TCAAAGGCAGCCTTCGTTTGCTTTTCCTTA | -0.675
79 | AATAGTGACCTCTGCTGGCCAGTGGAAAAC | 1.08
80 | GGCATGGGAAGCAGTGAGGGTGGGTTCAAA | 0.803
81 | GCATTCTGTTTCCTACTGACCTCCGACCCC | 6.31
82 | ACCGCAAATAAAAGAGGGCCCCATCATGTG | -1.12
83 | CTATTAACTTTTCCATGTCCAAAGGTCTTC | 4.86
84 | ATCTTCTTTCCTGGTGCCTCCTTATCTCCC | 1.61
85 | TCGCCTTTTATTTTTCCCCTGAAATATCAT | 1.64
86 | CCTATTTGCTTGTGAATGAAAGAGACTAGT | 1.14
87 | CACCAGGTGGAGTCTCCTTGAGGGCAAAGT | 3.33
88 | GTGCTATCTCAGCTCACTGTAACCTTTGCC | 3.93
89 | AACTCTTCATTATGGATAGGCACATATTGG | 1.73
90 | TCTCCAAGTCAAACATTAGCCAGGATCAGA | -1.22
91 | AGGCATTAGCAATGCGAGAGTACACAGAAG | -1.03
92 | TCCTGCTAGTCACATCAAAACCTCCCAGCT | -0.66
93 | CGAGTTGTTCTCCGTCTATAAATACGCCTC | -1.15
94 | TGGGTTATGTTAGACCAGCCAATTCTACTG | -1.05
95 | TGGGGGAAGGGCAGGGCCTGGGAGATAACC | -1.18
96 | GGTCAAAGTGCGTCCTGTGGCAAAGGTGAA | 2.73
97 | GCAGGTGAACGACTTGACAAAGGTCATTCA | 4.28
98 | GAATCCCGGGAATCCTCAGCCTTCTCCGCG | -1.21
99 | GTACTTTGGAACCTGAAAGAGCAACTACTC | 2.5
100 | CAAATATTTACTGAATGAATGTCCAACTTG | -0.173

Row | Sequence | binding signal (log2 normalized intensity)
101 | TGAGGGTAAAGATCTTGAGGCCCACAAGGA | -1.19
102 | TAACAGACTGTAGGCTTGGAGCCTTGTAAA | -0.934
103 | CCATGGACCTGACACCCGCTGGCGCCATCC | -1.25
104 | AGGTTACAATTGTCCCCAAGATTGAGGCCA | 1.21
105 | CCTCCTGTGGTAATAAGTTGGTGGACGCTG | 1.02
106 | GGAATGTCCTGGCAGGCTTCGAAAAATGGG | -0.695
107 | GCACATGGCATGATCCCTGACTCATAGCTC | -1.18
108 | TGTTAGCACTCAGTCATTGCCATCTGCAAG | -1.09
109 | GCTGTATGTTCTAACCATAGGAGGCTGGTC | 0.647
110 | TGCCTAGAGGCCTGGGAATGCCTAGGGGGA | -1.11
111 | CACTCAGCTGTGTCTACCCTTTTGCCCTTT | 5.62
112 | CTGGGCGCTGGGAAGACAGTCTTGGGCACA | -1.27
113 | TTCTAGACACCAAACACAGTTGCTGTCTAG | 0.594
114 | GGAGCGGCCTGCACCTGTTTCTGGAGAATG | -1.19
115 | GAGTGTCAGAGGCTAAACCTAGCCCCCTTT | 3.05
116 | GCTCAAAGGCGGCCCGGGTGGGGGTGGGGC | -1.14
117 | CTTCATTCTCATCTTCTATGATAAGATCTT | 1.47
118 | TCCGCGAGGGTCCCCACCTTCCATTACCAC | 1.47
119 | CCGGGGCAAACAAGGGCAACTCTAATAGCA | -1.15
120 | TGACCTTTGTTTGGTCAAATACCTAATTGT | 2.63
121 | GTCTTTCAGGAAGGAATAAAAGGCTGTTCT | 0.708
122 | TCTTTGAGAAAACTCCAAAGACATTATCAC | -1.1
123 | CACAGACAAATATTTGCTGTTACTCTAGTA | 0.789
124 | AAAATACCTGGAAGTATTTATTGAGCACAC | -0.723
125 | CAACCAGGAGAATTTCAGTATTAATGTCAA | 0.794

Row | Sequence | binding signal (log2 normalized intensity)
126 | CCCACTCCCCCTGCTGGACACCGAGGTCCT | 2.1
127 | TTGCCCTTTGCCCAACCCTCTCCCACTCCC | 4.91
128 | TTCCAAAGGTCACCCGTATTCCTTAGCTTA | 1.6
129 | TTTTCGGAAGAACTGGTTCTGTGGAATTTG | 1.83
130 | TTCCACGACTCCCCCGCTCACCCCTCCCCA | 6.39
131 | AGTTGGAAAATATTTCTCTGAACTTTGACC | 8.41
132 | CCCAAAAGGTCAATCTGGATTGTACTGTGT | 3.1
133 | ATTCATAAAGTTCTCTGGCAAATATCAGCA | 0.257
134 | AGAGGTCACTCAGCAATAAATACCAAAGCC | -1.03
135 | CAGAAGTCATGTCTCATTGCCCCTTGAGCT | 3.52
136 | TTCCAGGGATGTTTGGCAGCTGAGGATTGT | 1.61
137 | GCGTATGAAGCTTTGACCCTGTTTTGTAAA | 2.4
138 | AGAGCAGACTATTATCAGCCAAAGTTCAGT | 1.87
139 | TGAGGTCAAGGCTTCTGCCCCAGACACGCT | 1.56
140 | CCCATTTTGTCCCTCCCTGCAGCTGAAGCA | 1.49
141 | CTTTGGACTTTTGAACTAAGGCTGGAATGA | 2.92
142 | CCACTGCGACCTTTGCCCTCCCTAAATCCA | 6.95
143 | AGGCAATGACTCCAAAGTTCAAACTCTGAA | 2.2
144 | GAGGCCAGTTTGACCTTTGCATTCTTACCC | 5.97
145 | GTTAAGACCTACATTAAGACCACCTCTATG | -1.12
